Data as given in the supplement of paper PMC12217912.
The other results are listed elsewhere or left out. The full chains were built here from the parent and the listed change. Inactive controls read about 0.05.

B1: TEV protease; numbered along this chain (parent)
chain: MGESLFKGPRDYNPISSSICHLTNESDGHTTSLYGIGFGPFIITNKHLFRRNNGTLVVQSLHGVFKVKDTTTLQQHLVDGRDMIIIRMPKDFPPFPQKLKFREPQREERICLVTTNFQTKSMSSMVSDTSCTFPSGDGIFWKHWIQTKDGQCGSPLVSTRDGFIVGIHSASNFTNTNNYFTSVPKNFMELLTNQEAQQWVSGWRLNADSVLWGGHKVFMVKPEEPFQPVKEATQL

Variants of: B1
Assay: raw area under fraction-flipped curve 0-4 h after induction (AUC4h, not background-subtracted), DNA-recorder readout of cleavage of the substrate (dimensionless); higher = more cleavage of the substrate by the protease variant
Settings: temperature: 34 °C; time window: 0-4 h after rhamnose induction
Experimental: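 In vivo DNA recorder in E. coli TOP10(DE3) ΔrhaA at 34 °C. Each TEVp single-site mutant (parent TEVp 0) is paired with a single-site variant of the 7-mer TEVs (canonical ENLYFQ|S). The substrate sits between flexible linkers in a Bxb1-sfGFP-TEVs-SsrA fusion, so cleavage stabilises Bxb1 and speeds flipping of a recombination array, read by NGS. The value is the raw area under the fraction-flipped curve over 0-4 h after rhamnose induction (AUC4h), with ≥20 reads per time point. It is not background-subtracted; inactive controls average about 0.047.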
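Further: Bxb1 expression induced with 0.2% (w/v) L-rhamnose at OD600 near 0.5, cultures sampled hourly, flipped fraction per protease–substrate barcode pair counted by paired-end Illumina sequencing.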

Variant | area with substrate CNLYFQS | area with substrate FNLYFQS | area with substrate HNLYFQS | area with substrate INLYFQS | area with substrate LNLYFQS | area with substrate MNLYFQS | area with substrate NNLYFQS | area with substrate PNLYFQS | area with substrate WNLYFQS | area with substrate GNLYFQS
S182P | 0.0518 | 0.0514 | 0.0724 | 0.0542 | 0.0491 | 0.068 | 0.0561 | 0.0658 | 0.0651 | 
S182I | 0.0441 |  | 0.0591 |  |  | 0.0625 | 0.0757 | 0.0675 | 0.0544 | 0.0593
S182Y | 0.0502 | 0.0536 |  | 0.0539 |  |  | 0.0544 | 0.0594 | 0.0529 | 
V165W | 0.0495 |  | 0.0395 | 0.0433 | 0.0553 | 0.0515 |  | 0.0523 | 0.0465 | 0.0552
V165Y | 0.0487 | 0.047 | 0.0495 |  | 0.0817 | 0.0372 | 0.0665 | 0.0349 | 0.0514 | 0.0565
G202D | 0.071 | 0.079 |  | 0.0537 |  | 0.0559 |  |  | 0.0545 | 0.072
G202P | 0.0539 | 0.0475 | 0.0443 | 0.0667 |  | 0.0542 | 0.0473 |  | 0.0595 | 0.0514
G202T | 0.0345 |  |  |  |  |  |  | 0.0714 |  | 0.0521
N178K | 0.0928 | 0.0507 | 0.0618 | 0.0275 | 0.0637 |  | 0.0544 | 0.0949 | 0.0562 | 
N178H | 0.0568 |  | 0.0605 |  | 0.0592 | 0.0619 |  | 0.0682 | 0.0442 | 
N178D | 0.0487 |  | 0.0667 |  | 0.0397 | 0.0566 |  |  | 0.069 | 
N178G | 0.069 |  |  | 0.105 |  |  |  |  | 0.0756 | 0.0915
N178E | 0.0496 |  | 0.05 |  | 0.0579 |  |  | 0.0382 | 0.0564 | 
D161M | 0.0466 |  | 0.068 | 0.0507 |  |  |  | 0.0479 | 0.0547 | 
D161I | 0.0478 |  | 0.0494 |  | 0.0493 | 0.0552 |  | 0.0632 |  | 0.0511
Q194Y | 0.0683 |  | 0.0404 |  | 0.0603 |  |  | 0.0606 |  | 0.0739
I167C | 0.0598 |  |  | 0.054 |  |  | 0.065 | 0.06 | 0.0605 | 
L191S | 0.0553 | 0.0528 |  | 0.0502 |  | 0.0443 |  |  | 0.0431 | 0.08
L191E | 0.0602 |  | 0.0504 | 0.0565 |  | 0.0613 | 0.0614 | 0.0621 | 0.0346 | 0.0568
M188A | 0.0617 | 0.0459 | 0.0556 | 0.0432 |  |  | 0.072 | 0.0709 | 0.0641 | 0.0768

Variant | area with substrate CNLYFQS | area with substrate FNLYFQS | area with substrate HNLYFQS | area with substrate INLYFQS | area with substrate LNLYFQS | area with substrate MNLYFQS | area with substrate NNLYFQS | area with substrate PNLYFQS | area with substrate WNLYFQS | area with substrate GNLYFQS
G162K | 0.0639 |  |  |  | 0.0823 |  |  | 0.0671 |  | 
G162I | 0.0563 |  | 0.0583 | 0.0444 |  |  |  | 0.0563 |  | 
G162W | 0.0854 | 0.0572 | 0.0611 | 0.0622 | 0.0408 | 0.0679 |  | 0.059 |  | 
Q197M | 0.0738 |  |  | 0.0638 | 0.0773 | 0.0624 |  |  |  | 0.0573
Q197A | 0.0792 |  | 0.0635 |  | 0.0551 | 0.0546 | 0.0612 |  | 0.0494 | 
Q197T | 0.0671 |  | 0.0532 | 0.0584 |  |  |  |  | 0.0654 | 
S171Q | 0.0581 |  |  | 0.0604 | 0.0672 | 0.0548 |  | 0.0712 |  | 
S171A | 0.0714 |  |  |  |  | 0.0729 | 0.071 |  | 0.0551 | 0.0193
R204S | 0.0766 | 0.058 | 0.0544 |  | 0.0799 | 0.0764 | 0.0728 | 0.0643 | 0.0657 | 
A207G | 0.102 |  | 0.0617 |  | 0.0649 |  | 0.0665 | 0.0493 | 0.0679 | 0.0823
A207Q | 0.0827 | 0.0731 |  |  |  |  |  |  |  | 
A207H | 0.0733 | 0.063 | 0.0642 |  | 0.0721 | 0.0501 |  | 0.0407 |  | 
A207W | 0.0642 |  | 0.047 |  |  | 0.0786 | 0.0668 | 0.0723 |  | 0.071
V210R | 0.0552 | 0.061 | 0.0516 | 0.0611 |  | 0.0385 | 0.0508 | 0.0308 | 0.0464 | 0.0633
V210H | 0.0623 |  | 0.0592 | 0.0591 | 0.0584 |  | 0.0542 | 0.0576 |  | 
W203M | 0.0493 |  | 0.0593 | 0.0541 |  |  |  |  | 0.0548 | 0.0795
W203I | 0.0525 |  | 0.0593 | 0.0463 | 0.0557 |  | 0.0625 | 0.0485 | 0.0755 | 0.064
N177D | 0.076 |  | 0.0877 |  | 0.073 |  | 0.0664 |  | 0.0642 | 
T159D | 0.0473 |  | 0.0561 |  |  |  |  | 0.0738 |  | 
T159S | 0.0696 |  | 0.0704 | 0.0842 |  |  |  | 0.0642 | 0.0546 | 0.0625

Same assay, conditions: temperature: 34 °C; time window: 0-4 h after rhamnose induction

Variant | area with substrate RNLYFQS | area with substrate TNLYFQS | area with substrate YNLYFQS | area with substrate KNLYFQS | area with substrate QNLYFQS | area with substrate SNLYFQS | area with substrate VNLYFQS
S182I | 0.078 | 0.0557 | 0.0578 |  |  |  | 
S182Y |  | 0.0467 |  | 0.0539 |  |  | 
V165W |  | 0.0595 | 0.0553 | 0.0578 |  |  | 
V165Y |  | 0.0578 |  |  | 0.0485 | 0.0562 | 0.0526
G202D |  |  | 0.0542 |  |  |  | 
G202P | 0.0694 |  | 0.0588 | 0.0889 |  | 0.0593 | 
G202T |  | 0.0665 | 0.0644 |  |  | 0.0484 | 
N178H | 0.0552 | 0.0641 | 0.0656 |  |  |  | 0.0618
N178G |  |  | 0.063 |  |  |  | 
N178E |  | 0.0546 |  |  |  |  | 
D161M |  |  | 0.0295 | 0.0414 |  |  | 
D161I |  | 0.0647 |  |  |  |  | 
Q194Y |  | 0.0733 |  |  |  |  | 
I167C |  | 0.0431 |  |  |  | 0.0662 | 
L191S |  |  | 0.0347 |  |  |  | 
L191E |  | 0.0667 |  |  |  |  | 0.0481
M188A |  | 0.0631 | 0.0531 | 0.0615 |  |  | 0.0953
G162K |  |  | 0.0896 |  |  |  | 

Variant | area with substrate RNLYFQS | area with substrate TNLYFQS | area with substrate YNLYFQS | area with substrate KNLYFQS | area with substrate QNLYFQS | area with substrate SNLYFQS | area with substrate VNLYFQS
G162I |  |  | 0.0525 |  |  | 0.0465 | 
G162W |  | 0.0641 |  | 0.0569 | 0.0716 | 0.0664 | 
Q197M |  |  |  | 0.0645 |  | 0.0661 | 
Q197A |  | 0.0609 | 0.0421 |  | 0.0623 | 0.0523 | 
Q197T |  |  |  |  | 0.0831 |  | 
S171Q |  |  | 0.111 |  |  | 0.0442 | 0.0641
R204S | 0.0657 | 0.0623 |  | 0.0728 |  | 0.0727 | 0.0834
A207G |  | 0.0607 | 0.0643 | 0.0595 | 0.0755 |  | 
A207Q |  |  | 0.0793 |  |  |  | 0.0736
A207H |  | 0.0775 | 0.0569 | 0.0589 |  | 0.0673 | 0.0628
V210R |  | 0.0618 | 0.0591 | 0.0515 |  |  | 
V210H |  | 0.0574 | 0.0462 |  | 0.05 |  | 
W203M |  |  |  |  |  | 0.0485 | 
W203I |  |  |  | 0.06 |  | 0.0552 | 0.0687
N177D |  | 0.0791 | 0.041 | 0.0417 |  | 0.0679 | 0.0751
T159D |  | 0.0719 | 0.0583 |  |  |  | 0.0642
T159S |  | 0.0746 | 0.0674 |  |  |  | 
